From PubChem BioAssay AID1030 (National Center for Advancing Translational Sciences (NCATS), 2008)
The campaign covered roughly 220,000 compounds. About 16,000 (7.3%) were called active. The shares of active, inactive and inconclusive entries below differ from those in the screen. The call rests on the fitted dose curve; in most records, active means well fitted inhibition curve with a large enough effect (not every such curve was filed as active); inconclusive means small, poorly fitted or top-dose-only effect, or another doubt; inactive means no such curve, though single readings can be large or run the other way. No potency is given beside an inconclusive call; the fits are too rough.

biological target: Aldehyde dehydrogenase 1A1 (Homo sapiens) (UniProt P00352); assay: qHTS Assay for Inhibitors of Aldehyde Dehydrogenase 1 (ALDH1A1); details: Purified ALDH1A1, NADH fluorescence, propionaldehyde substrate; series mostly up to 75.3 µM
Potency means the concentration at half of the fitted maximal effect; tags describe the fitted curve by direction and shape.

UniProt P00352, sequence (P00352 whole entry, looked up): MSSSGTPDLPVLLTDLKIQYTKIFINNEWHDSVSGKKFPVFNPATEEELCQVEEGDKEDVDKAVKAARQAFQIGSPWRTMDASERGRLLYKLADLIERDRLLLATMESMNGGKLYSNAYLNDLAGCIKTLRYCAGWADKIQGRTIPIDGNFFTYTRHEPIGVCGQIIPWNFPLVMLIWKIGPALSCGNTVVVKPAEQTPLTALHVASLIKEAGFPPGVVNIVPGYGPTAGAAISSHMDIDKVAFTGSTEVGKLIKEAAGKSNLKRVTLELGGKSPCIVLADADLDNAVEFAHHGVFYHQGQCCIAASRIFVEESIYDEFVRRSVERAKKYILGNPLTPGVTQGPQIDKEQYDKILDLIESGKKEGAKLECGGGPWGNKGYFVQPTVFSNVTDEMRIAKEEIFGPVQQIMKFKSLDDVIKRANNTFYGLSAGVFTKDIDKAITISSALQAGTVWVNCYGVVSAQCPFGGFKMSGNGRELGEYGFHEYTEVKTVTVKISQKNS

SMILES | Potency
CCN(CC)C(=O)CS(=O)CC(=O)Nc1cc(OCCOC)c(Cl)cc1Cl (centres undefined) | inactive
CC(=O)N1CCN(c2cc(N3CCCC3)c(F)cc2[N+](=O)[O-])CC1 | inconclusive [inhibitor, partial curve]
COc1cccc(OC)c1-c1nnc(-c2cn(C)c3ccccc23)o1 | inconclusive [inhibitor, partial curve]
CCOc1cc(NC(=O)c2ccccc2C)c(OCC)cc1NC(=O)C1=Cc2ccccc2OC1 | inactive
CC(NCc1ccc(-c2ccccc2)cc1)C(O)c1ccccc1 (centres undefined) | inconclusive [inhibitor, single point]
Cc1nn(Cc2ccccc2)c(C)c1NC(=O)CSc1nc(C2CC2)nc2c1cnn2-c1ccccc1 | inactive
CC(=O)Nc1ccc(NC(=O)C(C)OC(=O)/C=C/c2cn(-c3ccccc3)nc2-c2cccnc2)cc1 (centres undefined) | inconclusive [inhibitor, single point]
COc1ccc(C(=O)C2CCCN(Cc3c[nH]c4ccccc34)C2)c(OC)c1 (centres undefined) | inactive
CC1Cc2ccccc2N1C(=O)COC(=O)CNC(=O)c1ccc(Br)o1 (centres undefined) | active: 28.2 µM
CCCCC1=C([O-])C2N=CC=CC2=[N+](c2ccccn2)C1=O (centres undefined) | inactive
O=C(NC(=S)NCCc1ccccn1)c1ccco1 | inactive
Cc1ccccc1-c1cncnc1NCc1ccccc1 | inconclusive [inhibitor, single point]
CCOc1cccc(/C=N/N2C(=O)CSC2=S)c1O | active: 7.08 µM
O=C(NCc1cccnc1)c1cc(Sc2ccc(F)cc2F)nc2ccccc12 | inconclusive [inhibitor, partial curve]
COC(=O)C(C)(N)Cc1ccc(O)cc1 (centres undefined) | inconclusive [inhibitor, single point]
COc1nc(NCC(C)C)nc(Oc2ccc(OCc3ccccc3)nn2)n1 | inactive
Cc1cccc(Nc2ccc(C(=O)N3CCOCC3)cn2)c1 | inactive
COc1ccc(CCNC(=O)c2ccc(N3CCCC3=O)cc2)cc1 | inactive
C[C@@H](Cc1ccccc1)Nc1ncnc2c1ncn2[C@@H]1O[C@H](CO)[C@@H](O)[C@H]1O | inactive
CC(C)NC(=S)NNc1nc2ccccc2s1 | active: 0.562 µM
COc1cccc(C(=O)Nc2ccc(S(=O)(=O)Nc3nccc(C)n3)cc2)c1 | inactive
CCOC(=O)c1cc(C(=O)OCC)c(=O)[nH]c1N1CCCC1 | inconclusive [inhibitor, single point]
CCOC(=O)c1nsnc1NCCSC(=N)N | inconclusive [inhibitor, single point]
C=CCn1c(C)cc(C(=O)COC(=O)/C=C/c2ccc(OC)cc2)c1C | inconclusive [inhibitor, single point]
Cc1ccc(-n2nc3c(c2NC(=O)c2ccc(S(=O)(=O)N4CCOCC4)cc2)CSC3)c(C)c1 | inconclusive [inhibitor, single point]

SMILES | Potency
Cc1ccc(C)c(C(=O)COc2ccc(C)nc2[N+](=O)[O-])c1 | active: 1.58 µM
CC(C)Cn1c(SCC(=O)N2CCCCC2)nc2ccccc2c1=O | active: 22.4 µM
CC(=O)c1cccc(NC=C2C(=O)OC3(CCCCC3)OC2=O)c1 | active: 2.24 µM
CCOC(=O)c1ccc(N/N=C/c2cc(Br)cc([N+](=O)[O-])c2O)cc1 | inactive
CC(C)CN1CCC2(CC1)CCN(C(=O)c1csnn1)CC2 | inactive
Oc1c(C(c2ccccn2)N2CCC(Cc3ccccc3)CC2)cc(Cl)c2cccnc12 (centres undefined) | active: 5.62 µM
O=C(Cc1ccccc1)N1CCN=C1SCc1cccc([N+](=O)[O-])c1 | inactive
COc1ccccc1CNC(=O)c1c(-c2ccccc2)nn(-c2ccccc2)c1C | active: 3.98 µM
COc1ccc(CCNC(=O)CSc2ccsc2[N+](=O)[O-])c(OC)c1 | active: 14.1 µM
O=C(OCC(=O)c1ccccc1Br)c1ccccn1 | inconclusive [inhibitor, partial curve]
C=CCOC(=O)N[C@@H](Cc1ccccc1)/C(C(=O)OC)=C(\C)NCc1ccccc1 | inconclusive [inhibitor, single point]
COc1cc(O)c2c(c1)C(=O)c1cc(C)cc(O)c1C2=O | inconclusive [inhibitor, partial curve]
Cc1cc(C)c(C#N)c(SCc2ccccc2C)n1 | inactive
CCCCn1c(SCC(=O)NCc2ccco2)nc2ccc(N3CCOCC3)cc2c1=O | inconclusive [inhibitor, partial curve]
O=C(NCc1nc2ccccc2[nH]1)c1ccco1 | inactive
O=C(C1=C[C@H](C2CCCCC2)C[C@H](OCc2ccc(CO)cc2)O1)N1CCN(Cc2ccccc2)CC1 | active: 14.1 µM
CCOc1ccc(OCc2nnc(SCC(=O)NC3CCS(=O)(=O)C3)n2-c2ccc(Cl)cc2)cc1 (centres undefined) | inconclusive [inhibitor, single point]
CC(=O)c1c(C)[nH]c(C(=O)OCCCCN2C(=O)c3ccccc3C2=O)c1C | inconclusive [inhibitor, partial curve]
O=C(NN1CCOCC1)c1sc2cccc(F)c2c1Cl | inconclusive [inhibitor, single point]
COc1ccc(-c2c(C)nn3c(N4CCC5(CC4)OCCO5)cc(C)nc23)cc1OC | inconclusive [inhibitor, partial curve]
Cc1c(Br)c([N+](=O)[O-])nn1CC(=O)Nc1ccc(Cc2ccncc2)cc1 | inconclusive [inhibitor, single point]
CC(c1ccon1)N(C)Cc1cn(C)nc1-c1cccc(Cl)c1 (centres undefined) | inconclusive [inhibitor, single point]
CCc1ccccc1N(C)C(=O)CCc1nc(-c2ccc(C)cc2)no1 | inactive
C/C(Cl)=C/Cn1c(SCC(C)C)nc2c1c(=O)[nH]c(=O)n2C | inconclusive [inhibitor, partial curve]
